# Laboratory results: the supplement of paper PMC8728848
# The other results are listed elsewhere or left out.
# B1: ZG16p (Homo sapiens), O60844 (protein)
# chain: ARSSSYSGEYGGGGGKRFSHSGNQLDGPITALRVRVNTYYIVGLQVRYGKVWSDYVGGRNGDLEEIFLHPGESVIQVSGKYKWYLKKLLFVTDKGRYLSFGKDSGTSFNAVPLHPNTVLRFISGRSGSLIDAIGLHWDVYPSSCSRC
# Tests used:
# Assay in all cases: glycan array binding signal (z-score within array); higher = stronger binding
# Details in all cases: glycan notation: IUPAC condensed, linker removed
# [1] = target: Man(a1-2)Man(a1-2)Man(a1-3)[Man(a1-2)Man(a1-3)[Man(a1-2)Man(a1-6)]Man(a1-6)]Man(b1-4)GlcNAc(b1-4)GlcNAc
# Procedure, shortened: (§1)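 The Consortium for Functional Glycomics database supplied 3228 glycan arrays, of which those lacking an available protein sequence were dropped. The binding signal, a within-array Z-score, was averaged across arrays of the same protein sequence and across linkers. Negative scores can be read as non-binding.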
# [2] = target: Man(a1-2)Man(a1-2)Man(a1-3)[Man(a1-2)Man(a1-6)[Man(a1-3)]Man(a1-6)]Man(b1-4)GlcNAc(b1-4)GlcNAc
# Procedure, shortened: as §1
# [3] = target: Man(a1-2)Man(a1-2)Man(a1-3)[Man(a1-3)[Man(a1-6)]Man(a1-6)]Man(b1-4)GlcNAc(b1-4)GlcNAc
# Procedure, shortened: as §1
# [4] = target: Man(a1-2)Man(a1-3)[Man(a1-2)Man(a1-6)[Man(a1-3)]Man(a1-6)]Man(b1-4)GlcNAc(b1-4)GlcNAc
# Procedure, shortened: as §1
# [5] = target: Man(a1-2)Man(a1-3)[Man(a1-3)[Man(a1-6)]Man(a1-6)]Man(b1-4)GlcNAc(b1-4)GlcNAc
# Procedure, shortened: as §1
# [6] = target: Man(a1-3)Man
# Procedure, shortened: as §1
# [7] = target: Man(a1-3)Man(a1-6)[Man(a1-3)]Man(b1-4)GlcNAc(b1-4)GlcNAc
# Procedure, shortened: as §1
# [8] = target: Man(a1-3)Man(b1-4)GlcNAc
# Procedure, shortened: as §1
# [9] = target: Man(a1-3)[Man(a1-6)]Man
# Procedure, shortened: as §1
# [10] = target: Man(a1-3)[Man(a1-6)]Man(a1-6)Man(b1-4)GlcNAc(b1-4)GlcNAc
# Procedure, shortened: as §1
# [11] = target: Man(a1-3)[Man(a1-6)]Man(a1-6)[Man(a1-3)]Man
# Procedure, shortened: as §1
# [12] = target: Man(a1-3)[Man(a1-6)]Man(a1-6)[Man(a1-3)]Man(b1-4)GlcNAc(b1-4)GlcNAc
# Procedure, shortened: as §1
# [13] = target: Man(a1-3)[Man(a1-6)]Man(b1-4)GlcNAc(b1-4)GlcNAc
# Procedure, shortened: as §1
# [14] = target: Man(a1-3)[Man(a1-6)]Man(b1-4)GlcNAc(b1-4)[Fuc(a1-6)]GlcNAc
# Procedure, shortened: as §1
# [15] = target: Man(a1-6)Man
# Procedure, shortened: as §1
# [16] = target: Man(a1-6)Man(b1-4)GlcNAc(b1-4)GlcNAc
# Procedure, shortened: as §1
# [17] = target: Man(b1-4)GlcNAc
# Procedure, shortened: as §1
# [18] = target: Man(b1-4)Man(b1-4)Man(b1-4)Man
# Procedure, shortened: as §1
# [19] = target: Man(b1-4)Man(b1-4)Man(b1-4)Man(b1-4)Man
# Procedure, shortened: as §1
# [20] = target: Man(b1-4)Man(b1-4)Man(b1-4)Man(b1-4)Man(b1-4)Man
# Procedure, shortened: as §1
# [21] = target: Man6P(a1-3)Man(a1-3)Man(a1-3)Man(a1-2)Man
# Procedure, shortened: as §1
# [22] = target: Neu(a2-3)Gal(b1-4)Glc
# Procedure, shortened: as §1
# [23] = target: Neu(a2-3)Gal(b1-4)GlcNAc(b1-3)Gal(b1-4)[Fuc(a1-3)]GlcNAc(b1-3)Gal(b1-4)Glc
# Procedure, shortened: as §1
# [24] = target: Neu(a2-3)Gal(b1-4)GlcNAc6S(b1-3)Gal(b1-4)Glc
# Procedure, shortened: as §1
# [25] = target: Neu(a2-3)Gal(b1-4)[Fuc(a1-3)]GlcNAc(b1-3)Gal(b1-4)Glc
# Procedure, shortened: as §1
# [26] = target: Neu(a2-3)Gal(b1-4)[Fuc(a1-3)]GlcNAc6S(b1-3)Gal(b1-4)Glc
# Procedure, shortened: as §1
# [27] = target: Neu(a2-3)Gal6S(b1-4)[Fuc(a1-3)]GlcN(b1-3)Gal(b1-4)Glc
# Procedure, shortened: as §1
# [28] = target: Neu(a2-6)Gal(b1-4)Glc
# Procedure, shortened: as §1
# [29] = target: Neu4Ac5Ac(a2-3)Gal(b1-4)Glc
# Procedure, shortened: as §1
# [30] = target: Neu4Me5Ac(a2-3)Gal(b1-4)Glc
# Procedure, shortened: as §1
# [31] = target: Neu5Ac(a2-2)Glc
# Procedure, shortened: as §1
# [32] = target: Neu5Ac(a2-3)4dGal(b1-4)[Fuc(a1-3)]GlcNAc(b1-3)Gal
# Procedure, shortened: as §1
# [33] = target: Neu5Ac(a2-3)6dGal(b1-4)[Fuc(a1-3)]GlcNAc(b1-3)Gal
# Procedure, shortened: as §1
# [34] = target: Neu5Ac(a2-3)Gal
# Procedure, shortened: as §1
# [35] = target: Neu5Ac(a2-3)Gal(b1-3)6dGalNAc
# Procedure, shortened: as §1
# [36] = target: Neu5Ac(a2-3)Gal(b1-3)GalNAc
# Procedure, shortened: as §1
# [37] = target: Neu5Ac(a2-3)Gal(b1-3)GalNAc(b1-4)[Neu5Ac(a2-3)]Gal(b1-4)Glc
# Procedure, shortened: as §1
# [38] = target: Neu5Ac(a2-3)Gal(b1-3)GalNAc(b1-4)[Neu5Ac(a2-8)Neu5Ac(a2-3)]Gal(b1-4)Glc
# Procedure, shortened: as §1
# [39] = target: Neu5Ac(a2-3)Gal(b1-3)GalNAc6S
# Procedure, shortened: as §1
# [40] = target: Neu5Ac(a2-3)Gal(b1-3)GalNAc6S(b1-4)Gal(b1-4)Glc
# Procedure, shortened: as §1
# [41] = target: Neu5Ac(a2-3)Gal(b1-3)GlcNAc
# Procedure, shortened: as §1
# [42] = target: Neu5Ac(a2-3)Gal(b1-3)GlcNAc(b1-3)Gal(b1-4)Glc
# Procedure, shortened: as §1
# [43] = target: Neu5Ac(a2-3)Gal(b1-3)GlcNAc(b1-3)[Fuc(a1-3)[Gal(b1-4)]GlcNAc(b1-6)]Gal(b1-4)Glc
# Procedure, shortened: as §1
# [44] = target: Neu5Ac(a2-3)Gal(b1-3)[Fuc(a1-3)]GlcN(b1-3)Gal(b1-4)Glc
# Procedure, shortened: as §1
# [45] = target: Neu5Ac(a2-3)Gal(b1-3)[Fuc(a1-4)]GlcNAc
# Procedure, shortened: as §1
binder,measurement,setting,value
B1,glycan array binding signal (z-score),[1],-0.13
same,glycan array binding signal (z-score),[2],-0.309
same,glycan array binding signal (z-score),[3],0.487
same,glycan array binding signal (z-score),[4],-0.202
same,glycan array binding signal (z-score),[5],-0.213
same,glycan array binding signal (z-score),[6],2.78
same,glycan array binding signal (z-score),[7],0.158
same,glycan array binding signal (z-score),[8],2.31
same,glycan array binding signal (z-score),[9],1.31
same,glycan array binding signal (z-score),[10],-0.192
same,glycan array binding signal (z-score),[11],1.19
same,glycan array binding signal (z-score),[12],0.103
same,glycan array binding signal (z-score),[13],0.764
same,glycan array binding signal (z-score),[14],0.796
same,glycan array binding signal (z-score),[15],0.107
same,glycan array binding signal (z-score),[16],0.162
same,glycan array binding signal (z-score),[17],-0.415
same,glycan array binding signal (z-score),[18],-0.328
same,glycan array binding signal (z-score),[19],-0.328
same,glycan array binding signal (z-score),[20],-0.328
same,glycan array binding signal (z-score),[21],1.46
same,glycan array binding signal (z-score),[22],-0.225
same,glycan array binding signal (z-score),[23],-0.328
same,glycan array binding signal (z-score),[24],-0.261
same,glycan array binding signal (z-score),[25],-0.328
same,glycan array binding signal (z-score),[26],-0.275
same,glycan array binding signal (z-score),[27],-0.328
same,glycan array binding signal (z-score),[28],-0.182
same,glycan array binding signal (z-score),[29],-0.253
same,glycan array binding signal (z-score),[30],-0.328
same,glycan array binding signal (z-score),[31],-0.264
same,glycan array binding signal (z-score),[32],-0.328
same,glycan array binding signal (z-score),[33],-0.328
same,glycan array binding signal (z-score),[34],-0.328
same,glycan array binding signal (z-score),[35],-0.32
same,glycan array binding signal (z-score),[36],-0.328
same,glycan array binding signal (z-score),[37],-0.328
same,glycan array binding signal (z-score),[38],-0.328
same,glycan array binding signal (z-score),[39],-0.328
same,glycan array binding signal (z-score),[40],-0.328
same,glycan array binding signal (z-score),[41],-0.207
same,glycan array binding signal (z-score),[42],-0.328
same,glycan array binding signal (z-score),[43],-0.328
same,glycan array binding signal (z-score),[44],-0.328
same,glycan array binding signal (z-score),[45],-0.319
